PMC6919601, “Identification of Plasmodium dipeptidyl aminopeptidase allosteric inhibitors by high throughput screening” (PLoS ONE, 2019)
Hit rate of the full screen: of about 110,000 compounds, about 230 (0.21%) showed an effect of 50% or more. Some of the results follow.

Biological target: DPAP1 (Plasmodium falciparum, UniProt Q8IIJ9)
Assay: primary screen, percent inhibition; read by cleavage of a fluorogenic dipeptide substrate; higher = more effect of the substance
Parameters: species or system P. falciparum D10 trophozoite lysates; single well
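Note: 30 min substrate incubation versus DMSO and 10 µM JCP410 controls.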

Chain of DPAP1 (Q8IIJ9 whole entry, looked up): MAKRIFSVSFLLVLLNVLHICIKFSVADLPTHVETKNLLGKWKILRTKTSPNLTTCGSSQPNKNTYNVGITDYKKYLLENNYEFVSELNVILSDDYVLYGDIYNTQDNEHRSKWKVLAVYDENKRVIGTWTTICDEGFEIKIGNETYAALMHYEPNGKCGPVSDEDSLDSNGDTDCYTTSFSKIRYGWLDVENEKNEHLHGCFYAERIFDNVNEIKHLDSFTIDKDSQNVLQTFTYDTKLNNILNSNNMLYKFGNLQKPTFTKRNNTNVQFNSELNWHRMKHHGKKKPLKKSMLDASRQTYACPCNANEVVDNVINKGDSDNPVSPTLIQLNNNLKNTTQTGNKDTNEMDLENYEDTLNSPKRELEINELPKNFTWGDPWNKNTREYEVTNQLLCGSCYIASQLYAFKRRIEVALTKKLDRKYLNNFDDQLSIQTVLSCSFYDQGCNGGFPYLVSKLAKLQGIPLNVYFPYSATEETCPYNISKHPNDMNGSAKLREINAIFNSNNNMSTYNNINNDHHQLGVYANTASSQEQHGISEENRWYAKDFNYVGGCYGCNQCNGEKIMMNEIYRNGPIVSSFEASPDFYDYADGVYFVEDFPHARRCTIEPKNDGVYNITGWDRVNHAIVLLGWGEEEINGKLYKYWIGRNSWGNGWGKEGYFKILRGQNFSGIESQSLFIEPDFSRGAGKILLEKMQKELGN

Row | SMILES | % Inhibition @ 10 uM
1 | COc1cc(-c2nc3s/c(=C\c4ccc(Br)cc4)c(=O)n3n2)cc(OC)c1OC | -2.98%
2 | CC(=O)Nc1ccc(CN2CCc3c([nH]c4ccccc34)C2)cc1 | -4.61%
3 | CCCN1C(=O)c2[nH]nc(-c3ccccc3O)c2C1c1ccccc1 (centres unmarked) | -3.12%
4 | CCCCCCCCC(=O)c1c(C)[nH]c(C(=O)OCC)c1C | -4.08%
5 | CCn1ncc(CN(C)C(=O)C23CC4CC(CC(C4)C2)C3)c1C | 10.7%
6 | O=S(=O)(Nc1ccc(-c2cn3cccnc3n2)cc1)c1ccc(Cl)cc1 | -1.63%
7 | Cc1[nH]c2ccccc2c1C1C(=O)NC(c2ccccc2)=NN1C(=O)c1ccccc1C(=O)O (centres unmarked) | 14.5%
8 | O=C(NCCC1=CCCCC1)c1nnc(-c2ccccc2)o1 | 0.974%
9 | CCN(CCN(C)C)C1CCCCCCC1 | -0.274%
10 | Cc1ccc(OCC(=O)N2CCN(C(=O)c3cccnc3)CC2)cc1 | -5.26%
11 | Cc1nn(C)c(C)c1-c1c(C#N)c(N)nc2c1CCCCCC2 | -1.32%
12 | COc1ccc(C(=O)N[C@@H](Cc2ccc(NC(=N)N)cc2)C(=O)NCC#N)cc1 | -1.41%
13 | CCOC(=O)c1ccc(NC(=O)Nc2cccc(Cl)c2)cc1 | 4.67%
14 | CSc1ncc(Cl)c(C(=O)Nc2sc3c(c2C(=O)NCC2CCCO2)CCCC3)n1 (centres unmarked) | -1.11%
15 | C/C(Cl)=C/Cn1c(SC(C)C)nc2c1c(=O)[nH]c(=O)n2C | 0.687%
16 | Cc1cccn2c(=O)c3cc(S(=O)(=O)c4ccccc4)c(=N)n(C4CCCCC4)c3nc12 | 7.49%
17 | CC(C)(C)c1ccc(C(=O)N(Cc2ccco2)C2CCS(=O)(=O)C2)cc1 (centres unmarked) | -2.85%
18 | COc1ccc(CCNC(=O)CNS(=O)(=O)c2ccc(Br)cc2)cc1 | -2.09%
19 | Cc1cc(=O)oc2c3c(ccc12)OCN(C(C)(C)C)C3 | 1.44%
20 | COCC(C)NC(=O)c1cc(-c2ccc(OC)cc2)on1 (centres unmarked) | -6.26%
21 | N#Cc1cccc(N2C(=O)c3ccccc3C2=O)c1 | 3.84%
22 | COc1cc(NC(=O)C2CC(=O)N=C(N)S2)cc(OC)c1 (centres unmarked) | -3.29%
23 | O=C(O)c1ccc(-c2nc(-c3ccc(C(=O)c4ccccc4)cc3)c(-c3ccccc3)[nH]2)cc1 | -0.479%
24 | CC(=O)N1c2ccc([N+](=O)[O-])cc2NC(=O)CC1C (centres unmarked) | -0.197%
25 | COc1cccc(S(=O)(=O)NCc2ccc(C(=O)Nc3cccc(Cl)c3)cc2)c1 | -1.55%
26 | CC(C)(C)c1ccc(S(=O)(=O)NCc2ccc(C(=O)N3CCCC3)cc2)cc1 | -1.82%

Row | SMILES | % Inhibition @ 10 uM
27 | O=C(CCc1ccccc1)Nc1nnc(Cc2ccc(Cl)c(Cl)c2)s1 | 1.58%
28 | CC(CCc1ccco1)NC(=O)C1CCN(c2cnccn2)CC1 (centres unmarked) | -2.88%
29 | CN1C(C(=O)NCC2CCCO2)=CC(c2ccco2)=NS1(=O)=O (centres unmarked) | 5.48%
30 | NC(=O)c1nc2n(c1N)CCCCC2 | 2.73%
31 | COc1cc2nc(O)n3nc(-c4ccccc4)nc3c2cc1OC | 12.9%
32 | COc1ccc(CCNC(=O)c2cc(-c3ccco3)nc3ccccc23)cc1 | 9.59%
33 | COc1ccc(-n2c(Cc3cccn3C)nnc2SCC(=O)N2CCC(C)CC2)cc1 | -5.76%
34 | O=C(c1ccccc1)c1ccc(C(=O)N2CCN(c3ccc(F)cc3)CC2)o1 | -6.83%
35 | Cn1c(C(=O)NCc2ccco2)cc2sccc21 | -4.85%
36 | CN1CCN(C(=O)/C(=C\c2cccs2)NC(=O)c2cccs2)CC1 | -7.02%
37 | Cc1nn2c(O)cc(-c3ccccc3)nc2c1-c1ccc(Cl)cc1 | 3.41%
38 | Cc1c(N2C(=O)c3cccc([N+](=O)[O-])c3C2=O)c(=O)n(-c2ccccc2)n1C | 1.08%
39 | CCCCOC(=O)c1ccc(-n2nnc3ccccc32)cc1 | -0.969%
40 | CCOc1ccc(-c2cn3c(n2)sc2cc(C(=O)NCCCN4CCCCC4C)ccc23)cc1 (centres unmarked) | 3.54%
41 | CCN(CC)CCN(C)Cc1cccc(Cl)c1 | 1.26%
42 | O=C1c2cccnc2C(=O)N1CCc1ccc(S(=O)(=O)NCCc2ccc(Cl)cc2)cc1 | 5.86%
43 | CCN(CC)S(=O)(=O)c1cc(C(=O)Nc2ccc(C)cc2)cc(C)c1C | 0.755%
44 | Cc1cccc(-c2nnc3sc(NC(=O)c4ccccc4F)nn23)c1 | 0.00665%
45 | COC(=O)c1cc(S(=O)(=O)NCCc2cccc(C)c2)cn1C | -6.59%
46 | O=C(CN(c1ccccc1)S(=O)(=O)c1ccccc1)Nc1ccc(Cl)c(Cl)c1 | -8.37%
47 | C1CNC2C(C1)C1CCCCN1C1CCCCN21 (centres unmarked) | -3.21%
48 | CC(=O)Nc1ccc(NS(C)(=O)=O)cc1 | -3.65%
49 | O=C(CN1CCCCC1)N1CCN(c2nnc(-c3ccccc3)c3ccccc23)CC1 | 0.778%
50 | Nc1cccc(CC(=S)N2CCOCC2)c1 | -3.35%
51 | N=c1c2c(-c3ccccc3)c(-c3ccccc3)oc2ncn1CCCO | 5%
52 | CCOC(=O)c1nnn(-c2nonc2-c2ccccc2)c1CN(CC)CC | -0.631%

Row | SMILES | % Inhibition @ 10 uM
53 | O=C(Nc1cccc(Cl)c1)N1CCCC1 | 4.73%
54 | N/C(=N/OC(=O)CC(NC(=O)C(F)(F)F)c1ccccc1)c1nonc1N (centres unmarked) | -3.48%
55 | O=C(O)c1[nH]c2ccccc2c1Sc1ccc(Cl)cc1 | -2.21%
56 | CC(=O)N1CCN(C2CCN(C)CC2)CC1 | -0.0908%
57 | CN1CCN(C(=O)/C(=C/c2ccccc2)NC(=O)c2ccccc2)CC1 | -0.968%
58 | COC(=O)c1cc(S(=O)(=O)N2CCCC(C)C2)c[nH]1 (centres unmarked) | -7.52%
59 | CNC(=O)c1cc(-c2ccc(OC)c(OC)c2)nc2ccccc12 | -11%
60 | O=C(NCC1CCCO1)c1ccccc1 (centres unmarked) | -0.292%
61 | Cc1nnc(N2CCC(C(=O)NCc3ccccc3Cl)CC2)c2nn(-c3ccccc3)c(C)c12 | -2.12%
62 | COc1ccc(S(=O)(=O)Nc2cc(Cl)c(Cl)cc2Cl)cc1 | -4.63%
63 | CCCN1C(=O)c2[nH]nc(-c3ccc(F)cc3)c2C1c1cccs1 (centres unmarked) | 0.635%
64 | CC(=O)NS(=O)(=O)c1ccc(NC(=O)c2ccccc2F)cc1 | -0.95%
65 | CN(CC(=O)NCc1ccc(Cl)cc1)S(=O)(=O)c1ccc(-c2ccc(O)nn2)s1 | -8.58%
66 | Cc1ccc(C(=O)c2oc3ccccc3c2NC(=O)C(C)C)cc1 | 5.5%
67 | O=C(CN(c1ccc(Cl)c(C(F)(F)F)c1)S(=O)(=O)c1ccccc1)NCC1CCCO1 (centres unmarked) | 20%
68 | COCCNC(=O)C1CCN(S(=O)(=O)N2CCCC2)CC1 | 2.18%
69 | O=C(O)CC1(CC(=O)Nc2ccccc2Br)CCCC1 | -1.82%
70 | CCCC1=NC(C(F)(F)F)(C(F)(F)F)N=C(N2CCOCC2)O1 | -1.72%
71 | NS(=O)(=O)c1ccc(NC(=O)/C=C/c2cccc([N+](=O)[O-])c2)cc1 | 11.4%
72 | O=C(CN(CCc1ccccc1)S(=O)(=O)c1ccc(Cl)cc1)N1CCCCCC1 | -4.14%
73 | COc1ccc(C(=O)N2CCCCC2)cc1S(=O)(=O)N1CCOCC1 | -0.48%
74 | COc1cc(/C=C2\NC(=O)NC2=O)cc(Br)c1OC | 0.273%
75 | Cn1cc(SCC(=O)Nc2nccs2)c2ccccc21 | -3.67%
76 | CCNC(=O)/C(C#N)=C/c1c(Oc2cccc(C)c2)nc2ccccn2c1=O | 3.12%
77 | CC(=O)c1cccc(NS(=O)(=O)c2c(C)cc(C)cc2C)c1 | 0.475%
78 | NS(=O)(=O)c1ccc(CCNC(=O)CCC2COc3ccccc3O2)cc1 (centres unmarked) | -5.41%

Row | SMILES | % Inhibition @ 10 uM
79 | CC(C)(C)NCC(O)COc1ccc(Cl)cc1 (centres unmarked) | 0.177%
80 | COc1ccc(C(=O)Nc2ccccc2C(C)C)cc1 | 2.65%
81 | N#CCNC(=O)[C@H](Cc1ccccc1)NC(=O)c1ccccc1 | -1.83%
82 | COC(=O)C1=CN(C)C=C(C(=O)OC)C1c1cc(Cl)c(O)c(OC)c1 | -5.05%
83 | Cc1ccccc1OCC(=O)Nc1ccc(Nc2ccccc2)cc1 | 2.17%
84 | CCOc1cc(C)c(S(=O)(=O)Nc2ccc(Cl)cn2)cc1C | -1.17%
85 | CCSc1nnc(C)c2ccccc12 | -8.8%
86 | CCOc1ccc(C(=O)Cc2ccccc2)cc1 | 3.39%
87 | O=C(NCc1ccc2c(c1)OCO2)c1nc(S(=O)(=O)Cc2ccc(F)cc2)ncc1Cl | -0.946%
88 | O=C1/C(=C\c2cc3c(cc2Br)OCO3)Sc2ccccc21 | 4.07%
89 | N#CC1(c2ccccc2)CCCN1C(=O)c1ccc(Br)o1 (centres unmarked) | -7.18%
90 | O=C1c2ccccc2-c2nnc(-c3ccc4c(c3)OCO4)cc21 | -2.15%
91 | Cc1ccc(C2C(C#N)=C(N)Oc3[nH]c(C)nc32)cc1 (centres unmarked) | 2.01%
92 | CCC(Cc1ccccc1)NC(=O)c1cc(S(=O)(=O)N2CCCCC2)c[nH]1 (centres unmarked) | 1.17%
93 | CCn1c(=N)n(CCCOc2ccccc2)c2ccccc21 | -2.21%
94 | O=[N+]([O-])c1cc(-c2ccnn2-c2ccccc2)c(Cl)cc1Cl | -0.261%
95 | CC(=O)C1=C(O)C(=O)N(CCc2c[nH]c3ccccc23)C1c1ccc(O)cc1 (centres unmarked) | -1.89%
96 | O=C(O)CCC(=O)NCc1cccnc1 | -4.35%
97 | COCCNCc1c(C(=O)O)n(Cc2ccccc2C)c2cc(C)ccc12 | -0.717%
98 | COc1cccc(C(=O)Nc2cc(C(F)(F)F)cc(C(F)(F)F)c2)c1OC | -3.5%
99 | CC1(C)CC(=O)C(C(=O)CCCN2C(=O)c3ccccc3C2=O)=C(N2CCCC2)C1 | -6.42%
100 | CC(C)N(Cc1nc(-c2ccc(Cl)cc2)no1)C(=O)c1cccs1 | -0.352%
101 | Cc1cccc(C)c1NC(=O)C(C)(C)NC(=O)CN1C(=O)c2ccccc2C1=O | -2.72%
